Laboratory results reported in PubChem BioAssay AID445 (National Center for Advancing Translational Sciences (NCATS), 2006).
Screen size: about 110,000 compounds; about 40 (0.04%) were called active. This list was built around the results that the source calls inconclusive (neither active nor inactive); the mix of calls is not that of the screen. The call rests on the fitted dose curve; in most records, active means well fitted curve in the direction sought with a large enough effect in the signal ratio (not every such curve was filed as active); inconclusive means small, poorly fitted or top-dose-only effect, or a change in a side signal; inactive means flat fitted curve, though single readings scatter; the % refers to the signal ratio. Potencies beside an inconclusive call are fits to weak or partial responses and may not hold up.

Experiment: IkB Signaling;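 on IkBa stabilization activation: 0% = basal untreated cells and 100% = reference inhibitor full response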
Conditions: ABC-DLBCL IkBa-CBG/CBR dual luciferase ratio (green luciferase fused to IkBa over red control in OCI-Ly3 lymphoma cells), 4 h; IkBa stabilization activation: at 57.1 µM (top of the series), scaled: untreated 0%, proteasome inhibitor 100% unless noted
Summary of the method: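 Curves were fitted separately to fusion (green), unfused (red) and ratio luminescence, then classed by r2, magnitude and activity. Cells: OCI-Ly3, 4 h compound plus doxycycline at 37C; 10 uM MG-132 defined full response.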
Potency means the concentration at half of the fitted maximal effect.

| Structure (SMILES) | IkBa stabilization activation | Potency |
| --- | --- | --- |
| COc1cccc(-c2nc(S(=O)(=O)c3ccccc3)c(N3CCC(C)CC3)o2)c1 | inconclusive: 3.46% [signal inhibitor] | – |
| CC1=C(C(=O)Nc2ccccc2)C(c2cc(Br)ccc2F)n2ncc(C(=O)Nc3ccccc3)c2N1 (centres undefined) | inconclusive: 1.48% [signal inhibitor] | – |
| Cc1ccc(C(=O)n2nc(C)c(S(=O)(=O)N3CCOCC3)c2C)cc1C | inconclusive: -1.18% [signal inhibitor] | – |
| CCOC(=O)c1cnn(-c2nc(C)cc(C)n2)c1N | inactive | – |
| O=C(NCCc1ccc(Cl)cc1)C1CCN(C(=O)c2sccc2-n2cccc2)CC1 | inactive | – |
| COc1ccc(Cn2c(CO)cnc2SCc2cccc(C)c2)cc1 | inconclusive: -1.17% [signal inhibitor] | – |
| COc1ccccc1N1CCN(C(=O)CCS(=O)(=O)c2cc(Br)cc3c2N(C(C)=O)CC3)CC1 | inconclusive: 4.32% [signal inhibitor] | – |
| O=C(COc1ccc(Cl)cc1)NCC(c1ccco1)S(=O)(=O)c1ccc(Cl)cc1 (centres undefined) | inconclusive: 6.46% [signal inhibitor] | – |
| COc1ccc(CNC(=O)c2cc3c(=O)n(C)c4ccccc4c3n2C)c(OC)c1 | inconclusive: 3.3% [signal inhibitor] | – |
| Cc1cc(C)c2oc(-c3ccc(C)c(NC(=O)/C=C/c4ccco4)c3)nc2c1 | – | inconclusive: 39.8 µM [rising, single point] |
| Nc1nc(C2CC2)c(Sc2sc(N)nc2C2CC2)s1 | inconclusive: 14.1% [signal inhibitor] | – |
| O=C(c1ccc(Cl)cc1)C1CCN(C(=O)NC2CCCCC2)CC1 | inconclusive: 2.93% [signal inhibitor] | – |
| CCCc1cc(=O)oc2c(C)c3c(cc12)CN(CCc1ccc(Cl)cc1)CO3 | inconclusive: 0.26% [signal inhibitor] | – |
| CC1CCC(NC(=O)CN2C(=O)C3CCCN3c3ncc(Cl)cc32)CC1 (centres undefined) | inconclusive: 3.69% [signal inhibitor] | – |
| Clc1cccc(-c2nc3nc4ccccc4nc3n2Cc2ccco2)c1 | – | inconclusive: 15.8 µM [signal inhibitor, partial curve] |
| Cc1ccc2c(c1)Cc1c(nc(-c3ccc(F)cc3)nc1SCC(=O)N1CCCCC1)O2 | inconclusive: 4.58% [signal inhibitor] | – |
| COc1cc(C(=O)Oc2c(CN3CCOCC3)cc(Cl)c3cccnc23)cc(OC)c1OC | inconclusive: 7.17% [signal activator] | – |
| CCCN1CCN(CCCNC(=O)C2CCCN(c3nc4ccc(OCC)cc4s3)C2)CC1 (centres undefined) | inconclusive: 3.96% [signal inhibitor] | – |
| Cc1ccc(Nc2c(-c3cccnc3)nc3ccc(Cl)cn23)cc1 | inconclusive: 4.72% [signal inhibitor] | – |
| Nc1ncnc2c1nc(Br)n2[C@@H]1O[C@H]2COP(=O)(O)O[C@@H]2[C@H]1O | – | inconclusive: 0.501 µM [rising, full curve] |
| COc1ccc(C(C)=O)cc1COC(=O)c1cc(C)oc1C | inactive | – |
| O=C(Nc1ccc(S(=O)(=O)N2CCCC2)cc1)c1ccc(CN2CCOCC2)cc1 | inconclusive: 2.47% [signal inhibitor] | – |
| CCOC(=O)C1CCN(C(=O)c2c(C)nn(-c3ccc(F)cc3)c2-n2cccc2)CC1 | inactive | – |

| Structure (SMILES) | IkBa stabilization activation | Potency |
| --- | --- | --- |
| COc1ccc(-c2oc(/N=C/N3CCOCC3)c(C#N)c2-c2ccc(OC)cc2)cc1 | inactive | – |
| COc1ccc(C(=O)Nc2nnc(S(=O)(=O)N(C)c3ccc(C)cc3)s2)cc1 | inactive | – |
| O=C(c1csnn1)N1CCC2(CC1)CN(c1cccc(-c3ccccc3)c1)C2 | inactive: -0.689% [at 11.4 µM, scaled: untreated 0%, proteasome inhibitor 100%] | – |
| CCc1ccccc1Nc1ncnc2c1cnn2-c1ccc(C)cc1C | inconclusive: -1.25% [signal inhibitor] | – |
| COc1cccc(CNC(=O)c2cc3c(=O)n(Cc4cccnc4)ccc3nc2C)c1 | inactive | – |
| CC(C)COc1ccc(C(=O)Nc2nnc(S(=O)(=O)N(C)Cc3ccco3)s2)cc1 | inconclusive: 3.09% [signal inhibitor] | – |
| COc1ccc(C(=O)OCC(=O)c2ccc(C)c(S(=O)(=O)N3CCOCC3)c2)cc1OC | inconclusive: 12.3% [signal inhibitor] | – |
| COc1ccc(-c2nc(-c3cccc(C)c3)no2)cc1OC | inactive | – |
| CCc1cccc(NC(c2ccccc2)c2nnc(-c3ccccc3F)o2)c1 (centres undefined) | inconclusive: 3.13% [signal inhibitor] | – |
| O=C(NCc1ccco1)c1cc2cc3ccc(Cl)cc3nc2o1 | inactive | – |
| Fc1ccc2[nH]c3c(N4CCN(c5ccccc5)CC4)ncnc3c2c1 | inconclusive: -7.24% [signal inhibitor] | – |
| CC(=O)N1CCC(C(=O)Nc2nc(-c3ccccc3)ns2)CC1 | inconclusive: 8.19% [signal inhibitor] | – |
| CCOc1ccc(CNC(=O)CN2N=C(c3ccccc3)CCC2=O)cc1OC | inactive | – |
| CCc1ccc(C2C(C(=O)Nc3ccccc3OC)=C(C)Nc3nc(SCc4ccccc4)nn32)cc1 (centres undefined) | inactive | – |
| CN(Cc1cc(=O)[nH]c2ccccc12)C(=O)c1ccccc1 | – | inconclusive: 2 µM [signal inhibitor, full curve] |
| Cc1ccc(-n2ncc(C(=O)NCCN3CCN(C)CC3)c2C2CCN(C(=O)OC(C)(C)C)CC2)cc1 | inconclusive: -0.409% [signal inhibitor] | – |
| Cc1nc(C)c(-c2ccc(SCC(=O)Nc3cccc(C)c3C)nn2)s1 | inconclusive: 1.53% [signal inhibitor] | – |
| Cn1c(C(=O)NCCc2ccccc2)cc2sc(Cl)cc21 | inactive | – |
| O=C(Nc1cccc(NC(=O)c2cccs2)c1)c1ccco1 | inactive | – |
| Cc1ccccc1C(=O)NNc1ncnc2c1cnn2-c1cccc(Cl)c1 | inconclusive: 1.71% [signal inhibitor] | – |
| CCOc1ccc(S(=O)(=O)Nc2cc(Cl)ccc2O)cc1 | inconclusive: 10.8% [signal inhibitor] | – |
| CCc1ccc(NC(=O)C2CCN(S(=O)(=O)c3cccc(-c4noc(C)n4)c3)CC2)cc1 | inactive | – |
| CCCc1ccc(NC(=O)C2CCCN(c3cnccn3)C2)cc1 (centres undefined) | inconclusive: 2% [signal inhibitor] | – |

| Structure (SMILES) | IkBa stabilization activation | Potency |
| --- | --- | --- |
| CCOc1ccc(Nc2nc(C)c(NC(=O)c3cccc(F)c3)c(Nc3ccc(OCC)cc3)n2)cc1 | inconclusive: 12.7% [signal inhibitor] | – |
| COc1cccc(-c2oc3ccc(C)cc3c(=O)c2O)c1 | – | inconclusive: 31.6 µM [signal inhibitor, single point] |
| CCC1Oc2ccc(C)cc2N(CC(=O)N2CCN(c3ccccc3OC)CC2)C1=O (centres undefined) | inconclusive: 1.65% [signal inhibitor] | – |
| Cc1noc(C)c1S(=O)(=O)N(CC(=O)NCCc1ccc(Cl)cc1)c1ccc(C(C)C)cc1 | inactive | – |
| COC(=O)c1ccc(N2C(=O)c3ccc(OC)c(OC)c3C2=O)cc1 | inactive | – |
| O=S(=O)(c1ccc(-c2csc(=Nc3ccc(F)cc3)n2CCCCCCO)cc1)N1CCCC1 | inconclusive: -0.953% [signal inhibitor] | – |
| Cc1cccc(OCC(=O)Nc2ccc3c(c2)nc(CN2CCCCC2)n3C)c1 | inconclusive: -0.502% [signal inhibitor] | – |
| CC(C)c1ccc(NC(=O)C2CCCN2S(=O)(=O)c2ccc3nc(-c4ccccc4)[nH]c3c2)cc1 (centres undefined) | inactive | – |
| Cc1ccc(-n2ncc3c(N4CCN(Cc5ccccc5)CC4)ncnc32)cc1Cl | inconclusive: 3.81% [signal inhibitor] | – |
| CCc1cc(=O)[nH]c(SCc2nc(-c3cccc(Cl)c3)no2)n1 | inconclusive: -1.85% [signal inhibitor] | – |
| CCOCCCn1c(SCC(=O)Nc2ccc(CC)cc2)nc2ccccc2c1=O | inconclusive: -0.0737% [signal inhibitor] | – |
| CCn1c(=O)c(C(=O)Nc2nc3ccccc3[nH]2)c(O)c2ccccc21 | – | inconclusive: 0.501 µM [signal inhibitor, full curve] |
| Cc1ccccc1Cn1c(=O)c2c(nc3n2CCCN3Cc2ccccc2)n(C)c1=O | inconclusive: 3.47% [signal inhibitor] | – |
| COc1ccccc1S(=O)(=O)Cc1ccc(C(=O)N2CCN(c3ccccc3)CC2)o1 | inactive | – |
| C=CCn1c(=O)c(C(=O)Nc2ccccc2O)c(O)c2ccccc21 | – | inconclusive: 25.1 µM [signal inhibitor, partial curve] |
| CCN1CCN(c2cc(C)c3cc(NC(=O)/C=C/c4cccc(OC)c4OC)ccc3n2)CC1 | inactive | – |
| CCOC(=O)C1CCN(C(=O)c2ccc3c(c2)sc2nc(-c4ccc(OC)cc4)cn23)CC1 | inconclusive: 2.32% [signal inhibitor] | – |
| C[N+](C)(C)CCC(=O)c1cccc2ccccc12 | – | inconclusive: 20 µM [signal inhibitor, partial curve, poor fit] |
| CCCCNC(=O)CSc1nc2n[nH]c(C)c2c(=N)n1-c1cccc(C)c1 | inconclusive: 1.07% [signal inhibitor] | – |
| N#CCCn1c(=O)c(-c2ccc(Cl)cc2)nc2cnc(N3CCOCC3)nc21 | inactive: -1.26% [at 11.4 µM, scaled: untreated 0%, proteasome inhibitor 100%] | – |
| Cc1cnc(NC(=O)COc2ccccc2)s1 | inconclusive: 3.38% [signal inhibitor] | – |
| N#Cc1cc2c(nc1SCC(=O)Nc1nccs1)CCCCC2 | inactive | – |
| Cc1nc2ccc(S(=O)(=O)NC(CC(C)C)C(=O)NCc3ccc(Cl)cc3)cc2s1 (centres undefined) | inconclusive: 1.85% [signal inhibitor] | – |
